PMC12784331, “Inhibiting Disulfide Bonding in Truncated Tau297–391 Results in Enhanced Self-Assembly of Tau into Seed-Competent Assemblies” (ACS Chemical Neuroscience, 2025)

Key:
[1] = molecular target: Tau RD P301S (repeat domain of tau with P301S, CFP- or YFP-tagged) of Tau RD P301S FRET Biosensor cells; assay: cell-based or functional assay
[2] = molecular target: the molecule itself; assay: non-reducing SDS-PAGE; 400 uM in 10 mM PB without DTT, 37 °C, 400 rpm; whole assembly mixture sampled at 0 h to 7 days, Laemmli buffer without BME, Coomassie; SDS-soluble species

- punctate fluorescence in tau Biosensor cells after 3 days with 10 uM dGAE-C322A fibrils (DSB(−)) [1]: 9.82 relative to control (control 1.00)
- punctate fluorescence in tau Biosensor cells after 3 days with 10 uM sonicated dGAE-C322A fibrils (DSB(−)) [1]: 51.1 relative to control (control 1.00)
B1: dGAE-C322A (domain or fragment)
chain: not shown
notes: Tau protein, […] (dGAE) with C322A; Substitution of the only cysteine residue of dGAE; also called C322A dGAE; source: E. coli BL21, purified (boiling, HiTrap SP Sepharose)
- stoichiometry N [2]: 2
